Results: the supplement of paper PMC9174493
The other results are listed elsewhere or left out. Single values of this set are uncertain. Values with irradiation are relative to irradiated vehicle.

Assays:
A549-Dual [1] = experiment: NF-kB reporter (SEAP) activity, viability-corrected, relative to vehicle (fold change vs vehicle); higher = more activation of STING-IRF / NF-kB immune response reporter
A549-Dual [2] = experiment: ISRE reporter (Lucia luciferase) activity, viability-corrected, relative to vehicle (fold change vs vehicle); higher = more activation of STING-IRF / NF-kB immune response reporter
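Throughout, for NF-kB reporter (SEAP) activity, viability-corrected, relative to vehicle: viability correction based on the alamar blue assay, with concentrations leaving 10% survival or less dropped.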

Row | Structure (SMILES) | NF-kB reporter (A549-Dual [1]; 0.1 µM, irradiation: 8 Gy/4 fr) | NF-kB reporter (A549-Dual [1]; 0.1 µM, irradiation: none) | NF-kB reporter (A549-Dual [1]; 0.3 µM, irradiation: 8 Gy/4 fr) | NF-kB reporter (A549-Dual [1]; 0.3 µM, irradiation: none) | NF-kB reporter (A549-Dual [1]; 1 µM, irradiation: 8 Gy/4 fr) | NF-kB reporter (A549-Dual [1]; 1 µM, irradiation: none) | NF-kB reporter (A549-Dual [1]; 3 µM, irradiation: 8 Gy/4 fr) | NF-kB reporter (A549-Dual [1]; 3 µM, irradiation: none) | NF-kB reporter (A549-Dual [1]; 10 µM, irradiation: 8 Gy/4 fr) | NF-kB reporter (A549-Dual [1]; 10 µM, irradiation: none) | ISRE reporter (A549-Dual [2]; 0.1 µM, irradiation: 8 Gy/4 fr) | ISRE reporter (A549-Dual [2]; 0.1 µM, irradiation: none) | ISRE reporter (A549-Dual [2]; 0.3 µM, irradiation: 8 Gy/4 fr) | ISRE reporter (A549-Dual [2]; 0.3 µM, irradiation: none) | ISRE reporter (A549-Dual [2]; 1 µM, irradiation: 8 Gy/4 fr) | ISRE reporter (A549-Dual [2]; 1 µM, irradiation: none) | ISRE reporter (A549-Dual [2]; 3 µM, irradiation: 8 Gy/4 fr) | ISRE reporter (A549-Dual [2]; 3 µM, irradiation: none) | ISRE reporter (A549-Dual [2]; 10 µM, irradiation: 8 Gy/4 fr) | ISRE reporter (A549-Dual [2]; 10 µM, irradiation: none)
1 | COc1cc2c(c(OC)c1OC)-c1ccc(OC)c(=O)cc1C(NC(C)=O)CC2 (stereo unspecified) [Colchicine] | 0.896 | 2.62 | 0.932 | 2.8 | 1.1 | 2.04 | 1.56 | 2.3 | 0.909 | 1.85 | 0.0834 | 0.968 | 0.107 | 1.51 | 0.054 | 0.788 | 0.0806 | 0.774 | 0.0815 | 0.63
2 | O=C(O)CCCc1ccc(N(CCCl)CCCl)cc1 [Chloroambucil] | 1.31 | 1.23 | 1.09 | 1.44 | 1.09 | 1.64 | 1.19 | 1.45 | 1.03 | 1.19 | 1.09 | 1.18 | 1.14 | 1.24 | 1.13 | 1.32 | 1.2 | 1.13 | 1.08 | 1.86
3 | Cc1c(N)nc(C(CC(N)=O)NCC(N)C(N)=O)nc1C(=O)NC(C(=O)NC(C)C(O)C(C)C(=O)NC(C(=O)NCCc1nc(-c2nc(C(=O)NCCC[S+](C)C)cs2)cs1)C(C)O)C(OC1OC(CO)C(O)C(O)C1OC1OC(CO)C(O)C(OC(N)=O)C1O)c1c[nH]cn1.O=S(=O)([O-])O (stereo unspecified) [Bleomycin sulfate] | 0.936 | 0.835 | 0.916 | 0.924 | 0.781 | 0.831 | 0.793 | 0.678 | 0.917 | 0.728 | 0.838 | 0.901 | 0.995 | 0.906 | 0.842 | 0.917 | 0.918 | 0.907 | 0.957 | 0.949
4 | CC(C)C12OC1C1OC13C1(C)CCC4=C(COC4=O)C1CC1OC13C2O (stereo unspecified) [Triptolide (PG490)] | 1.41 | 2.12 | 0.814 | 3.06 | 2.32 | 1.99 | 3.05 | 1.64 | 1.71 | 3.07 | 0.1 | 2.34 | 0.314 | 0.588 | 0.103 | 0.408 | 0.0906 | 0.448 | 0.102 | 0.382
5 | COC1=CC2C3Cc4ccc(OC)c(O)c4C2(CCN3C)CC1=O (stereo unspecified) [Sinomenine] | 0.98 | 1.73 | 1.26 | 1.87 | 1.44 | 1.33 | 1.9 | 1.2 | 1.32 | 0.927 | 1.14 | 1.4 | 1.14 | 1.29 | 1.14 | 1.2 | 1.22 | 1.26 | 1.26 | 0.803
6 | CC(C)N(CCC(C(N)=O)(c1ccccc1)c1ccccn1)C(C)C (stereo unspecified) [Disopyramide] |  |  |  |  |  |  |  |  | 0.967 | 1.37 |  |  |  |  |  |  |  |  | 0.816 | 0.841
7 | CN1C2CCC1CC(OC(=O)C(CO)c1ccccc1)C2.CN1C2CCC1CC(OC(=O)C(CO)c1ccccc1)C2.O.O=S(=O)(O)O (stereo unspecified) [Atropine sulfate monohydrate] |  |  |  |  |  |  |  |  | 0.796 | 1.3 |  |  |  |  |  |  |  |  | 0.865 | 0.866
8 | O=[N+]([O-])OC1COC2C(O[N+](=O)[O-])COC12 (stereo unspecified) [Isosorbide dinitrate] |  |  |  |  |  |  |  |  | 1.1 | 0.564 |  |  |  |  |  |  |  |  | 0.959 | 0.5
9 | Cl.NCC(O)c1ccc(O)cc1 (racemic) [(+,-)-Octopamine HCl] | 1.44 | 2.19 | 1.26 | 2.25 | 1.98 | 1.59 | 2.2 | 1.54 | 1.77 | 1.14 | 1.29 | 2.13 | 1.24 | 1.98 | 1.48 | 1.3 | 1.23 | 1.36 | 1.55 | 0.941
10 | COc1cc2c(cc1O)CC1c3c(cc(O)c(OC)c3-2)CCN1C (stereo unspecified) [Boldine] | 1.04 | 1.27 | 1.17 | 1.01 | 1.26 | 0.965 | 1.24 | 0.918 | 0.975 | 1.17 | 1.07 | 0.931 | 1.03 | 0.705 | 0.862 | 0.785 | 0.797 | 0.967 | 1.01 | 0.856
11 | O=P1(NCCCl)OCCCN1CCCl (stereo unspecified) [Ifosfamide] | 0.864 | 1.05 | 0.9 | 1.1 | 0.744 | 0.789 | 0.862 | 0.78 | 0.855 | 0.939 | 0.927 | 0.933 | 1.03 | 1.05 | 0.745 | 0.794 | 0.906 | 0.688 | 0.863 | 0.836
12 | CCC1(O)C(=O)OCc2c1cc1n(c2=O)Cc2cc3ccccc3nc2-1 (stereo unspecified) [Camptothecin] | 1.02 | 1.69 | 1.22 | 3 | 1.34 | 2.65 | 2.11 | 4.31 | 2.65 |  | 1.3 | 7.37 | 1.41 | 10.1 | 1.47 | 7.9 | 2.53 | 12.9 | 2.01 | 
13 | CC(C)(O)C(Cl)(Cl)Cl [Chlorobutanol] |  |  |  |  |  |  |  |  | 0.714 | 1.12 |  |  |  |  |  |  |  |  | 0.751 | 0.919
14 | NC(=O)CN1CCCC1=O [Piracetam] |  |  |  |  |  |  |  |  | 0.486 | 1.05 |  |  |  |  |  |  |  |  | 0.535 | 0.964
15 | CC1CC(=O)CC2CCC3C4CCC(O)C4(C)CCC3C12C (stereo unspecified) [Mesterolone] | 1.03 | 0.921 | 0.843 | 1.09 | 0.917 | 1.2 | 0.893 | 1.03 | 0.865 | 0.995 | 0.876 | 0.781 | 0.874 | 0.846 | 0.914 | 0.755 | 0.785 | 0.636 | 0.803 | 0.807
16 | CCC1(O)C(=O)OCc2c1cc1n(c2=O)Cc2c-1nc1ccccc1c2CCNC(C)C.Cl (stereo unspecified) [Belotecan (CKD-602) hydrochloride] | 1.44 | 2.07 |  | 3.32 | 3.63 | 7.18 |  |  |  |  | 1.4 | 6.78 |  | 7.09 | 1.33 | 8.56 |  |  |  | 
17 | O.O=P1(N(CCCl)CCCl)NCCCO1 (stereo unspecified) [Cyclophosphamide Monohydrate] | 0.886 | 0.955 | 1.02 | 0.912 | 0.821 | 0.864 | 0.927 | 0.778 | 0.846 | 0.842 | 0.905 | 0.924 | 1.07 | 0.877 | 0.864 | 0.823 | 0.901 | 0.698 | 0.893 | 0.793
18 | COC1=CC2C3Cc4ccc(OC)c(O)c4C2(CCN3C)CC1=O.Cl (stereo unspecified) [Sinomenine hydrochloride] | 1.12 | 1.14 | 1.14 | 0.961 | 1.34 | 0.909 | 1.11 | 1.04 | 1.15 | 1.18 | 1.29 | 1.08 | 1.26 | 1.12 | 1.12 | 1.03 | 1.07 | 1.06 | 1.15 | 0.857
19 | CC1CCC2N(C1)CC1C3CC4C(CC(O)C5CC(O)CCC54C)C3CCC1C2(C)O (stereo unspecified) [Peimine] | 0.959 | 0.829 | 0.94 | 0.776 | 1.06 | 0.828 | 1.18 | 0.775 | 1.05 | 0.741 | 0.692 | 0.76 | 0.77 | 0.617 | 0.775 | 0.802 | 1.17 | 0.838 | 1.14 | 0.749
20 | NC(Cc1ccc(N(CCCl)CCCl)cc1)C(=O)O (stereo unspecified) [Melphalan] | 1.12 | 1.24 | 0.959 | 1.28 | 1.15 | 1.66 | 1.03 | 1.39 | 0.803 | 1.02 | 1.12 | 1.25 | 0.983 | 1.23 | 1.08 | 1.46 | 0.907 | 1.21 | 0.875 | 1.27
21 | C=CCN1CC(C(=O)N(CCCN(C)C)C(=O)NCC)CC2c3cccc4[nH]cc(c34)CC21 (stereo unspecified) [Cabergoline] | 0.977 | 1.09 | 0.984 | 0.986 | 1.03 | 1.12 | 1.05 | 1.1 | 1.06 | 1.04 | 1.04 | 1.05 | 1.15 | 1.12 | 1.1 | 1.06 | 1.26 | 0.881 | 1.2 | 1.24
22 | O=P([O-])(O)C(Cl)(Cl)P(=O)([O-])O.[Na+].[Na+] [Clodronate Disodium] |  |  |  |  |  |  |  |  | 0.775 | 0.881 |  |  |  |  |  |  |  |  | 0.885 | 0.82
23 | CC(CCc1ccccc1)NC(C)C(O)c1ccc(O)cc1.Cl (stereo unspecified) [Nylidrin Hydrochloride] |  |  |  |  |  |  |  |  | 1.04 | 0.689 |  |  |  |  |  |  |  |  | 1.18 | 0.715
24 | O=C(O)c1nn(Cc2ccc(Cl)cc2Cl)c2ccccc12 [Lonidamine] | 1.32 | 1.3 | 1 | 1.54 | 1 | 1.84 | 1.18 | 1.47 | 1.06 | 0.997 | 1.1 | 1.13 | 1.01 | 1.24 | 1.07 | 1.23 | 1.04 | 0.756 | 1.01 | 0.797
25 | Cn1cc(C2=C(c3cn(C4CCN(Cc5ccccn5)CC4)c4ccccc34)C(=O)NC2=O)c2ccccc21 | 1.03 | 0.928 | 0.893 | 1.05 | 0.894 | 1.12 | 1.21 | 1.13 | 1.48 | 1.45 | 0.975 | 0.991 | 1.06 | 0.945 | 0.907 | 1.07 | 1.24 | 1.14 | 1.3 | 1.06
